# B1: ATX-P-423: human anti-ANGPTL7 monoclonal antibody; HCDR1-3 SEQ ID NOs 40, 56, 71; LCDR1-3 SEQ ID NOs 90, 102, 114 (antibody)
# heavy: QVQLVESGGGVVQPGRSLRLSCAASGFTFSSYGMHWVRQAPGKGLEWVSHITYDGSDKYYGDSVKGRFTISRDNSKNTLYLQMNSLRAEDTAVYYCAKDGYSSGWWYFDYWGQGTLVTVSSASTKGPSVFPLAPSSKSTSGGTAALGCLVKDYFPEPVTVSWNSGALTSGVHTFPAVLQSSGLYSLSSVVTVPSSSLGTQTYICNVNHKPSNTKVDKRV[in this place human IgG1 Fc with changes]
# light: DIQMTQSPSSLSASVGDRVTITCRASQGIRNDLGWYQQKPGKAPKRLIYAASSLQSGVPSRFSGSGSGTEFALTISSLQPEDFATYYCLQHNSYPLTFGGGTKLEIKRTVAAPSVFIFPPSDEQLKSGTASVVCLLNNFYPREAKVQWKVDNALQSGNSQESVTEQDSKDSTYSLSSTLTLSKADYEKHKVYACEVTHQGLSSPVTKSFNRGEC
# B2: ATX-P-435: human anti-ANGPTL7 monoclonal antibody; HCDR1-3 SEQ ID NOs 76, 80, 84; LCDR1-3 SEQ ID NOs 143, 153, 163 (antibody)
# heavy: QLQLQESGPGLVKPSETLSLTCTVSGGSISSSSSYWGWIRQPPGKGLEWIGSIYYSGSTYSNPSLKSRVTISVDTSKNQFSLKLSSVTAADTAVYYCARQYISGTEYFQYWGQGTLVTVSSASTKGPSVFPLAPSSKSTSGGTAALGCLVKDYFPEPVTVSWNSGALTSGVHTFPAVLQSSGLYSLSSVVTVPSSSLGTQTYICNVNHKPSNTKVDKRV[in this place human IgG1 Fc with changes]
# light: EIVLTQSPATLSLSPGERATLSCRASQSVSNYLAWYQQKPGQAPRLLIYDASNRATGIPARFSGSGSGTDFTLTISSLEPEDFAVYYCQQRSNWPSFGQGTRLEIKRTVAAPSVFIFPPSDEQLKSGTASVVCLLNNFYPREAKVQWKVDNALQSGNSQESVTEQDSKDSTYSLSSTLTLSKADYEKHKVYACEVTHQGLSSPVTKSFNRGEC
# Key:
# [1] = Differential scanning fluorimetry (Protein Thermal Shift assay), thermal stability; assay type: physicochemical; conditions: DSF, melt 25° C. to 95° C., triplicate; in °C (unit assumed)
# Method: Human ANGPTL7 monoclonal antibody differential scanning fluorimetry (DSF). […] Among the many techniques used to study the stability of mAbs, differential scanning fluorimetry (DSF) offers both excellent throughput and minimal material consumption. DSF measures the temperature of the protein unfolding transition (Tm) based on the change in fluorescence intensity of an environmentally sensitive dye.
# Experiments were conducted to assess the thermal stability of the human ANGPTL7 monoclonal antibodies (“ATX” antibodies) of the present disclosure by determining the melting temperature. Thermal stability was assessed via differential scanning fluorimetry (DSF) utilizing the Protein Thermal Shift (PTS) assay from Applied Biosystems. The assay was performed according to the manufacturer's instruction. Briefly, the antibody to be evaluated was prepared in triplicate by mixing with Protein Thermal Shift dye and buffer; a real-time melt experiment from 25° C. to 95° C. was run on QuantStudio 3. Data was analyzed by using Protein Thermal Shift Software and the melting temperature (Tm) was calculated from the melt curve (Table 1).
# [2] = molecular target: T1, mouse ANGPTL7 protein (muANGPTL7-his, R&D Systems) (Mus musculus, UniProt Q8R1Q3); experiment: Octet HTX binding kinetics to muANGPTL7-his; conditions: monovalent KD, 1:1 model; muANGPTL7-his @ 200 nM
# T1 construct: His; purchased R&D Systems
# T1 sequence (Q8R1Q3 22-337): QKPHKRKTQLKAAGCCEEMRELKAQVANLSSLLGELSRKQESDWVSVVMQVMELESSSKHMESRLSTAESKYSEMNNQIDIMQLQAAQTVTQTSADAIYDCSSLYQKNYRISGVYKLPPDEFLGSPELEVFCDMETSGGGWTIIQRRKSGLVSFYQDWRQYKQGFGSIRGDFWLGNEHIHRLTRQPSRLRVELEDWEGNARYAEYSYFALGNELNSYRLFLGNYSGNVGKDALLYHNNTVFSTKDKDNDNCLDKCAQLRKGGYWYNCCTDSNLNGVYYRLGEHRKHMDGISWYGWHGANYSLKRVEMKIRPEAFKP
# Method: (§1) Experiments were also conducted to determine the reactivity and dissociation constants (KD) of anti-ANGPTL7 antibodies with the mouse ANGPTL7 protein. Binding experiments were performed on Octet HTX (ForteBio) in 1×PBS, pH 7.4, 0.1 mg/mi BSA, 0.05% Sodium Azide, and 0.02% Tween 20. Antibodies at a concentration of 50 nM were loaded on pre-hydrated AHC biosensors for 5 mA. The loaded sensors were dipped into monovalent muANGPTL7-his (R&D Systems) at a concentration of 200 nM for 5 min of association, followed by 10 min of dissociation. Results were analyzed with ForteBio Data Analysis 11.1 and fit to a 1:1 binding model to determine the monovalent KD. Responses (nm) at the end of association were also determined (Table 5).
# [3] = tested on: rabbit ANGPTL7 protein (P66, rabbit ANGPTL7-his); experiment: Octet HTX binding kinetics to P66 (rabbit ANGPTL7-his); conditions: P66 @ 200 nM
# Method: as §1, with “([…])” for “(KD)”, “rabbit” for “mouse”, “Rx PBS,” for “1×PBS,”, “min.” for “mA.”, “P66 (rabbit ANGPTL7-his)” for “muANGPTL7-his (R&D Systems)”, “6).” for “5).”
Molecule,Tm D - Mean [1],KD (M) [2],kdis(1/8) [3],Tm 2 - Mean [1],"KD (M) ([3]; monovalent KD, 1:1 model)"
B1,62.50,N.B.,5.54E−04 1/8,,
B2,62.68,N.B.,N.B.,78.38,N.B.

# Source: patent US20250296996A1, “ANGIOPOIETIN-RELATED PROTEIN 7-SPECIFIC ANTIBODIES AND USES THEREOF” (Broadwing Bio, Inc., priority 2022, published 2025)
